Results published in paper PMC4336329 (PLoS ONE, 2015).
The whole screen tested about 310,000 compounds, of which about 14,000 (4.5%) showed an effect of 50% or more. The effect is printed as a negative number. This is one part of the list.

target: human ether-à-go-go-related gene (hERG) potassium channel (human, UniProt Q12809); assay: primary screen, population patch clamp on CHO cells stably expressing hERG
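Further: peak tail current of the secondary pulse compared with the same well before compound.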

human ether-à-go-go-related gene (hERG) potassium channel, sequence (Q12809 whole entry, looked up): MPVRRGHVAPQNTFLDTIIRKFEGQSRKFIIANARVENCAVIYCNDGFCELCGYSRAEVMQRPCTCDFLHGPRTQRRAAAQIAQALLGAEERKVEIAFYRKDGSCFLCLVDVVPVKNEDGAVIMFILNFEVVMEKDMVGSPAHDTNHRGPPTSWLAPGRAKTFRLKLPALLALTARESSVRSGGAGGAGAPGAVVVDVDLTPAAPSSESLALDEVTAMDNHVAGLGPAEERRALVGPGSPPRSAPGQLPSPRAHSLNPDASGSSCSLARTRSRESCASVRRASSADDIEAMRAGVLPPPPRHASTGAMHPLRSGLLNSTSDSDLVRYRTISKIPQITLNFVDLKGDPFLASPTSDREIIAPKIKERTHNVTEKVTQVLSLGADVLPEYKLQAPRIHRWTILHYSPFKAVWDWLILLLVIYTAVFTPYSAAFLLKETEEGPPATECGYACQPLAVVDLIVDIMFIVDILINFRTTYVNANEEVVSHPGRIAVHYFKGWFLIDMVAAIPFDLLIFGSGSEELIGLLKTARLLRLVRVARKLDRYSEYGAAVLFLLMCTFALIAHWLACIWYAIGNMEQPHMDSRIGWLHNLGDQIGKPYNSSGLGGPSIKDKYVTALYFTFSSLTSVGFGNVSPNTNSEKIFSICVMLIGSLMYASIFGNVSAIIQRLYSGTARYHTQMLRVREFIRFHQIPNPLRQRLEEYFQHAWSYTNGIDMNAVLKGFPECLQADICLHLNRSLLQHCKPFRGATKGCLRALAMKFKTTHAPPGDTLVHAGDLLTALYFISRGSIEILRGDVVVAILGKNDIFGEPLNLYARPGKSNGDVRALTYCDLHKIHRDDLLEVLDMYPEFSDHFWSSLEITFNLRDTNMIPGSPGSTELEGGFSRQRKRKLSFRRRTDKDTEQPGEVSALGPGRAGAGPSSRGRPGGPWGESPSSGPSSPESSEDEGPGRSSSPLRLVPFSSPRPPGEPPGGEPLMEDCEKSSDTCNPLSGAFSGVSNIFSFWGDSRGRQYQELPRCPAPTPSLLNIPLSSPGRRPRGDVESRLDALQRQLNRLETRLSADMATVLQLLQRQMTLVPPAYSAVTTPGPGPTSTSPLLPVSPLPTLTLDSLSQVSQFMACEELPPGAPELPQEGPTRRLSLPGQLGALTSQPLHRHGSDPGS

SMILES	hERG current change (%, negative = inhibition) at 10uM [%]
Oc1c(C(c2ccccc2Cl)N2CCCC2)ccc2cccnc12 (stereo not drawn)	5.2
COCCn1c(C)cc(C(=O)COc2nc3ccccc3nc2C)c1C	-0.0779
COCCNC(=O)C1c2cc(OC)c(OC)cc2C(=O)N(C)C1c1cccnc1 (stereo not drawn)	9.12
CCCCn1c(CCC(=O)O)nc2c1c(=O)[nH]c(=O)n2CCC	-38.7
CSc1nnc(CNS(=O)(=O)c2ccc(Br)cc2)n1C	5.86
CN1CCN(C(=S)Nc2ccc(Cl)c(Cl)c2)CC1	-29.5
CC[N+](CC)(CC)CCCCCCCCCC[N+](CC)(CC)CC.[Br-]	5.32
CCOC(=O)C1CCN(C(=O)CN(c2ccc(OC)cc2)S(=O)(=O)c2c(C)nn(C)c2C)CC1	-2.41
Cc1c(Cc2ccccc2)sc(NC(=O)Cc2ccccc2)c1C(N)=O	12.8
CC(C)c1cc(C(=O)NC2CCCc3c2cnn3-c2ccccc2F)no1 (stereo not drawn)	2.9
COC(=O)c1cc(Br)c(=O)n(CCC2=CCCCC2)c1	-7.34
CC(C)(C)NC(=O)c1ccc2c(c1)N(CC(=O)NC1CCCC1)C(=O)C(C)(C)O2	8.72
Cc1ccc(S(=O)(=O)CC(c2ccccc2)N2CCOCC2)cc1 (stereo not drawn)	3.15
CCCN(C(=O)c1cc(CC)c(C)s1)c1c(N)n(Cc2ccccc2)c(=O)[nH]c1=O	3.38
CC(Oc1ccc(Cl)cc1Cl)C(=O)Nc1cccnc1 (stereo not drawn)	9.22
CCc1ccc(NC(=O)C/C(C)=N/NC(=O)COc2ccc(C)cc2Br)cc1	-30.5
CN1CCN(CC(O)COC(c2ccc(Cl)cc2)c2ccc(Cl)cc2)CC1.Cl (stereo not drawn)	-69.3
CCOC(=O)N1CCN(C(=O)c2cccc(-n3c(=S)[nH]c4cc(Cl)ccc4c3=O)c2)CC1	2.3
Cc1cccc(-n2c(-c3csc(C)c3C)n[nH]c2=S)c1	20.8
COc1ccc(NC(=O)COC(=O)CNC(=O)c2cccs2)cc1Cl	3.29
CN1CCN(S(=O)(=O)c2ccc(N(C)CC(=O)Nc3ccc(F)cc3)nc2)CC1	-4.31
CN1C(=O)C(CC(=O)O)S/C1=N\N=C\c1ccc(O)cc1O (stereo not drawn)	6.03
O=C(NC1CC1)c1cc2cc3ccccc3nc2s1	-3.76

SMILES	hERG current change (%, negative = inhibition) at 10uM [%]
O=C(Nc1ccc(Cl)cc1)c1ccncc1	7.62
Cc1cccc(C(=O)NC(=S)NNC(=O)c2cccs2)c1	17.2
CCCN(CCC)S(=O)(=O)c1ccc(C(=O)N2CCCc3ccccc32)cc1	-14.3
CCOc1cc(C(=O)OCC(=O)Nc2cc(C)on2)cc(OCC)c1OCC	2.29
O=C(Nc1ccccc1)N1CCC(c2nc(-c3ccc(S(=O)(=O)N4CCOCC4)cc3)no2)CC1	-4.94
CCn1c(=O)c(=O)[nH]c2cc(C(=O)N(C)Cc3ccc(OC)c(F)c3)ccc21	10.4
OC(CN1CCN(c2ccccc2F)CC1)c1ccc(F)cc1 (stereo not drawn)	-19.3
Cl.OC(c1ccccc1)(c1ccccc1)C1CN2CCC1CC2 (stereo not drawn)	-45.2
CN(C)/C=N/c1ncc(C(=O)c2ccc3ccccc3c2)s1	-36.3
Cc1cc(/C=C(/C#N)c2nc3ccccc3[nH]2)c(C)n1-c1cccc([N+](=O)[O-])c1	17.8
Cc1cccc(OCCCCCNCCO)c1	3.93
CCOC(=O)Nc1nn(-c2ccc(C)cc2)c(=O)c(C#N)c1C	-18.7
Cc1ccccc1Nc1nc(N)nc(CSc2nc3ccccc3c(=O)n2C)n1	10
O=C(NNC(=O)c1ccccc1[N+](=O)[O-])c1ccccn1	4.6
CC1(C)CN(c2ccccc2)N(Cc2ccc(F)cc2)C1=O	-12.7
CCc1cc(C(=O)COc2ccc(F)cc2)c(O)cc1O	2.44
COc1ccc(CNC(=O)C2=CC(c3ccc(OC)cc3)=NS(=O)(=O)N2C)cc1	-54.5
CCCNc1nc2ccccc2c(=O)[nH]1	37.1
NC(=O)NC(Cc1ccccc1)C(=O)NCC1(N2CCCCC2)CCCCC1 (stereo not drawn)	10.9
C/C(=N/NC(=O)CNC(=O)c1cccs1)c1ccco1	11.7
Cc1ccc2c(c1)C1CN(C)CCC1N2C(=O)Cn1nnc(-c2ccccc2F)n1 (stereo not drawn)	-60.1
N#CC1(NC(=O)COC(=O)Cc2n[nH]c(=O)c3ccccc23)CCCCC1	6.73
